In a collection of fitness landscapes (doi:10.1126/science.1257360):
This is one part of the list.

B1: PhoQ; a variant is named by its letters at X, in order, P23837 (parent)
chain: MKKLLRLFFPLSLRVRFLLATAAVVLVLSLAYGMVALIGYSVSFDKTTFRLLRGESNLFYTLAKWENNKLHVELPENIDKQSPTMTLIYDENGQLLWAQRDVPWLMKMIQPDWLKSNGFHEIEADVNDTSLLLSGDHSIQQQLQEVREDDDDAEMTHSVAVNVYPATSRMPKLTIVVVDTIPVELKSSYMVWSWFIYVLSANLLLVIPLLWVAAWWSLRPIEALAKEVRELEEHNRELLNPATTRELTSLVRNLNRLLKSERERYDKYRTTLTDLTHSLKTPLXXLQXXLRSLRSEKMSVSDAEPVMLEQISRISQQIGYYLHRASMRGGTLLSRELHPVAPLLDNLTSALNKVYQRKGVNISLDISPEISFVGEQNDFVEVMGNVLDNACKYCLEFVEISARQTDEHLYIVVEDDGPGIPLSKREVIFDRGQRVDTLRPGQGVGLAVAREITEQYEGKIVAGESMLGGARMEVIFGRQHSAPKDE

Variants of: B1
Assay: enrichment ratio after two sorts for PhoP signalling (ratio (wild type AVST 3.29)); higher = more functional
Conditions: with PhoP (E. coli)
In the case of GGSK, the enrichment ratio is reported as ≤ 0.25.
With HIRT the enrichment ratio was ≤ 0.25.
SQKE was tested, and the enrichment ratio was ≤ 0.25.
In the case of GSIT, the enrichment ratio is reported as 2.65.
WFVF was tested, and the enrichment ratio was ≤ 0.25.
With EQHF the enrichment ratio was ≤ 0.25.
With IIQR the enrichment ratio was ≤ 0.25.
LAVM gave an enrichment ratio of 0.451.
With FPES the enrichment ratio was ≤ 0.25.
In the case of MKLD, the enrichment ratio is reported as ≤ 0.25.
VFLC was tested, and the enrichment ratio was ≤ 0.25.
In the case of ITDH, the enrichment ratio is reported as ≤ 0.25.
In the case of EITG, the enrichment ratio is reported as ≤ 0.25.
With RRPQ the enrichment ratio was ≤ 0.25.
KEDD was tested, and the enrichment ratio was ≤ 0.25.
LDWD was tested, and the enrichment ratio was ≤ 0.25.
In the case of WQNY, the enrichment ratio is reported as ≤ 0.25.
In the case of YVRH, the enrichment ratio is reported as ≤ 0.25.
IWSK was tested, and the enrichment ratio was ≤ 0.25.
With FTNC the enrichment ratio was ≤ 0.25.
With WNLV the enrichment ratio was ≤ 0.25.
YQED was tested, and the enrichment ratio was ≤ 0.25.
For PSDQ, the enrichment ratio was ≤ 0.25.
NPNN was tested, and the enrichment ratio was ≤ 0.25.
For HLWN, the enrichment ratio was ≤ 0.25.
EQLI was tested, and the enrichment ratio was ≤ 0.25.
TKMY gave an enrichment ratio of 24.
For PMCE, the enrichment ratio was ≤ 0.25.
In the case of IDCQ, the enrichment ratio is reported as ≤ 0.25.
In the case of QEGY, the enrichment ratio is reported as ≤ 0.25.
With KEPK the enrichment ratio was ≤ 0.25.
For WPKR, the enrichment ratio was ≤ 0.25.
For VMEC, the enrichment ratio was ≤ 0.25.
With RRHL the enrichment ratio was ≤ 0.25.
For SNQF, the enrichment ratio was 3.81.
For PFVA, the enrichment ratio was ≤ 0.25.
WTNT was tested, and the enrichment ratio was ≤ 0.25.
LVRM was tested, and the enrichment ratio was ≤ 0.25.
In the case of EILH, the enrichment ratio is reported as ≤ 0.25.
NMFE was tested, and the enrichment ratio was ≤ 0.25.
VSSL showed an enrichment ratio of 1.57.
In the case of ILND, the enrichment ratio is reported as ≤ 0.25.
NNQQ was tested, and the enrichment ratio was ≤ 0.25.
For LPSR, the enrichment ratio was ≤ 0.25.
For YRAN, the enrichment ratio was ≤ 0.25.
With HYTD the enrichment ratio was ≤ 0.25.
YRSV was tested, and the enrichment ratio was ≤ 0.25.
With SWSF the enrichment ratio was ≤ 0.25.
With MRPL the enrichment ratio was ≤ 0.25.
NKWF was tested, and the enrichment ratio was ≤ 0.25.
For KLNR, the enrichment ratio was ≤ 0.25.
With GGKK the enrichment ratio was ≤ 0.25.
In the case of QEDF, the enrichment ratio is reported as ≤ 0.25.
With RNPC the enrichment ratio was ≤ 0.25.
For QGNQ, the enrichment ratio was ≤ 0.25.
For GIRL, the enrichment ratio was ≤ 0.25.
With EYAH the enrichment ratio was ≤ 0.25.
In the case of WWLL, the enrichment ratio is reported as ≤ 0.25.
In the case of HEHK, the enrichment ratio is reported as ≤ 0.25.
With QFWV the enrichment ratio was ≤ 0.25.
In the case of MPQV, the enrichment ratio is reported as ≤ 0.25.
In the case of YKIW, the enrichment ratio is reported as ≤ 0.25.
IDQS was tested, and the enrichment ratio was ≤ 0.25.
In the case of VGKR, the enrichment ratio is reported as ≤ 0.25.
In the case of RKSI, the enrichment ratio is reported as ≤ 0.25.
KKIY was tested, and the enrichment ratio was ≤ 0.25.
With SAPN the enrichment ratio was ≤ 0.25.
In the case of GKFY, the enrichment ratio is reported as ≤ 0.25.
For SHVV, the enrichment ratio was ≤ 0.25.
With IRGF the enrichment ratio was ≤ 0.25.
HRTV was tested, and the enrichment ratio was ≤ 0.25.
With YNYV the enrichment ratio was ≤ 0.25.
With HRQM the enrichment ratio was ≤ 0.25.
ARFH was tested, and the enrichment ratio was ≤ 0.25.
For VHFR, the enrichment ratio was ≤ 0.25.
In the case of TLDN, the enrichment ratio is reported as ≤ 0.25.
With AGNH the enrichment ratio was ≤ 0.25.
In the case of EDTK, the enrichment ratio is reported as ≤ 0.25.
In the case of PANQ, the enrichment ratio is reported as ≤ 0.25.
With RGEN the enrichment ratio was ≤ 0.25.
KSQH was tested, and the enrichment ratio was ≤ 0.25.
For MNCG, the enrichment ratio was ≤ 0.25.
For NLLV, the enrichment ratio was ≤ 0.25.
IKEF was tested, and the enrichment ratio was ≤ 0.25.
For YQTK, the enrichment ratio was ≤ 0.25.
GVFK was tested, and the enrichment ratio was ≤ 0.25.
With PHTY the enrichment ratio was ≤ 0.25.
For KNKG, the enrichment ratio was ≤ 0.25.
ASWW was tested, and the enrichment ratio was ≤ 0.25.
In the case of IVDN, the enrichment ratio is reported as ≤ 0.25.
QETH was tested, and the enrichment ratio was ≤ 0.25.
With YLEV the enrichment ratio was ≤ 0.25.
NIVF was tested, and the enrichment ratio was ≤ 0.25.
With NPQA the enrichment ratio was ≤ 0.25.
With RQRR the enrichment ratio was ≤ 0.25.
For YGND, the enrichment ratio was ≤ 0.25.
PWLY was tested, and the enrichment ratio was ≤ 0.25.
For PRYA, the enrichment ratio was ≤ 0.25.
With PGYN the enrichment ratio was ≤ 0.25.
IAVN was tested, and the enrichment ratio was ≤ 0.25.
EYLP was tested, and the enrichment ratio was 0.7.
With WDCA the enrichment ratio was ≤ 0.25.
In the case of TPNF, the enrichment ratio is reported as ≤ 0.25.
GGNL was tested, and the enrichment ratio was ≤ 0.25.
In the case of DLHL, the enrichment ratio is reported as ≤ 0.25.
For PCND, the enrichment ratio was ≤ 0.25.
PDAS was tested, and the enrichment ratio was ≤ 0.25.
With YIWR the enrichment ratio was ≤ 0.25.
For YDYF, the enrichment ratio was ≤ 0.25.
In the case of MEWD, the enrichment ratio is reported as ≤ 0.25.
SRKI was tested, and the enrichment ratio was ≤ 0.25.
In the case of DDFQ, the enrichment ratio is reported as ≤ 0.25.
In the case of TRAF, the enrichment ratio is reported as ≤ 0.25.
In the case of MPRF, the enrichment ratio is reported as ≤ 0.25.
For VNHW, the enrichment ratio was ≤ 0.25.
For LAPH, the enrichment ratio was ≤ 0.25.
MLHT showed an enrichment ratio of 11.5.
RFVY was tested, and the enrichment ratio was ≤ 0.25.
In the case of AHPN, the enrichment ratio is reported as ≤ 0.25.
In the case of PGRG, the enrichment ratio is reported as ≤ 0.25.
With AHMK the enrichment ratio was ≤ 0.25.
With LGIV the enrichment ratio was ≤ 0.25.
For LAGD, the enrichment ratio was ≤ 0.25.
In the case of HHLI, the enrichment ratio is reported as ≤ 0.25.
For RNGM, the enrichment ratio was ≤ 0.25.
YGNM was tested, and the enrichment ratio was ≤ 0.25.
ISSN was tested, and the enrichment ratio was ≤ 0.25.
With QKTL the enrichment ratio was ≤ 0.25.
ADHY was tested, and the enrichment ratio was ≤ 0.25.
DPTY was tested, and the enrichment ratio was ≤ 0.25.
With HWNC the enrichment ratio was ≤ 0.25.
PQVF was tested, and the enrichment ratio was ≤ 0.25.
For FHWH, the enrichment ratio was ≤ 0.25.
With SRTH the enrichment ratio was ≤ 0.25.
TQSE showed an enrichment ratio of 5.
PRGY was tested, and the enrichment ratio was 0.915.
With YPDD the enrichment ratio was ≤ 0.25.
With HKES the enrichment ratio was ≤ 0.25.
TQRQ was tested, and the enrichment ratio was ≤ 0.25.
AMRY was tested, and the enrichment ratio was ≤ 0.25.
In the case of DTWR, the enrichment ratio is reported as ≤ 0.25.
With HHNG the enrichment ratio was ≤ 0.25.
For IKAQ, the enrichment ratio was ≤ 0.25.
For YQYM, the enrichment ratio was ≤ 0.25.
In the case of GADR, the enrichment ratio is reported as ≤ 0.25.
For TDKM, the enrichment ratio was ≤ 0.25.
In the case of FWKI, the enrichment ratio is reported as ≤ 0.25.
In the case of TKSW, the enrichment ratio is reported as ≤ 0.25.
ETNA was tested, and the enrichment ratio was ≤ 0.25.
For DCGS, the enrichment ratio was ≤ 0.25.
With IGII the enrichment ratio was ≤ 0.25.
PDRN was tested, and the enrichment ratio was ≤ 0.25.
VSLV showed an enrichment ratio of 9.64.
In the case of AWIQ, the enrichment ratio is reported as ≤ 0.25.
For ESWN, the enrichment ratio was ≤ 0.25.
MQGY was tested, and the enrichment ratio was ≤ 0.25.
NSRF was tested, and the enrichment ratio was ≤ 0.25.
With TWIM the enrichment ratio was ≤ 0.25.
In the case of NPKF, the enrichment ratio is reported as ≤ 0.25.
For IAKL, the enrichment ratio was ≤ 0.25.
With EEET the enrichment ratio was ≤ 0.25.
For QALN, the enrichment ratio was 1.6.
In the case of RIHH, the enrichment ratio is reported as ≤ 0.25.
QTYH was tested, and the enrichment ratio was ≤ 0.25.
With DMEN the enrichment ratio was ≤ 0.25.
For FHQF, the enrichment ratio was ≤ 0.25.
With LYDR the enrichment ratio was ≤ 0.25.
With VDHE the enrichment ratio was ≤ 0.25.
For WRQG, the enrichment ratio was ≤ 0.25.
In the case of WPEF, the enrichment ratio is reported as ≤ 0.25.
With FQRA the enrichment ratio was ≤ 0.25.
VVFG was tested, and the enrichment ratio was ≤ 0.25.
For KYGS, the enrichment ratio was ≤ 0.25.
Variant SMGC has an enrichment ratio of 0.959.
In the case of PDLE, the enrichment ratio is reported as ≤ 0.25.
With KSQS the enrichment ratio was ≤ 0.25.
SEFN showed an enrichment ratio of 4.06.
LCIR was tested, and the enrichment ratio was ≤ 0.25.
In the case of KAAT, the enrichment ratio is reported as ≤ 0.25.
For VKEA, the enrichment ratio was ≤ 0.25.
WCAK was tested, and the enrichment ratio was ≤ 0.25.
In the case of EGWF, the enrichment ratio is reported as ≤ 0.25.
For IYFQ, the enrichment ratio was ≤ 0.25.
In the case of NWWD, the enrichment ratio is reported as ≤ 0.25.
For QKNA, the enrichment ratio was ≤ 0.25.
IERD was tested, and the enrichment ratio was ≤ 0.25.
FCLH was tested, and the enrichment ratio was 2.83.
For SPQN, the enrichment ratio was ≤ 0.25.
AWTR was tested, and the enrichment ratio was ≤ 0.25.
In the case of DSSM, the enrichment ratio is reported as ≤ 0.25.
With IFSW the enrichment ratio was ≤ 0.25.
SCCV was tested, and the enrichment ratio was 8.64.
NVTD was tested, and the enrichment ratio was ≤ 0.25.
In the case of IDHP, the enrichment ratio is reported as ≤ 0.25.
For LMWI, the enrichment ratio was ≤ 0.25.
